Source: PubChem BioAssay (NCI)
“And” between values parts separate entries of the source, which are not always exact repeats. Equal values may be shown once.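 How tested: cells in 96-well plates exposed to compound for 48 hours at five concentrations. GI50 is the concentration that inhibits growth by half. The concentration for full growth arrest is given as TGI.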

System: NCI-H322M lung
Experiment: inhibition of tumour cell growth, NCI panel, 48 h

| SMILES | GI50 | TGI |
| --- | --- | --- |
| Cn1nc(N)c2cc([C@@H]3Nc4ccc5[nH]ncc5c4[C@H]4C5CCC(C5)[C@@H]34)ccc21 (some centres undefined) | 1.28 µM | 46.5 µM |
| COC(=O)C1=C(C)NC2=C(C(=O)c3ccccc32)C1c1cn(-c2ccccc2)nc1-c1ccccc1 (centres undefined) | – | > 100 µM |
| Clc1nc2ccccc2nc1CI | 19.2 µM | 37.7 µM |
| NNC(=S)N/N=C(\CC1OC(=O)c2ccccc21)c1ccccc1O (centres undefined) | – | > 100 µM |
| S=C(Nc1ccccc1)N(/N=C/C=C/c1ccccc1)c1nnc(-c2ccccc2)c(-c2ccccc2)n1 | – | > 100 µM |
| CN(C)N=Nc1ccc(NC=O)cc1 | – | > 100 µM |
| COc1ccc(C(C)=O)cc1N1C(=O)C2C(C1=O)C1(c3ccccc3)C(=O)C2(c2ccccc2)C(c2ccc(C)cc2)=C1c1ccc(C)cc1 (centres undefined) | > 100 µM | > 100 µM |
| CCN(CC)CCCC(CNc1ccnc2cc(Cl)ccc12)c1ccc(Cl)cc1 (centres undefined) | 1.51 µM and 1.88 µM | 4.13 µM and 4.63 µM |
| CC(=O)Nc1ccc(N2C(=O)/C(=C\c3cccc(Oc4ccccc4)c3)S(=O)(=O)C2c2ccccc2)cc1 (centres undefined) | – | > 100 µM |
| COc1cc(C2SCC(=O)N2c2ccccn2)cc(OC)c1OC (centres undefined) | – | > 100 µM |
| COC(=O)C(=Cc1cc(OC)ccc1OC)C(=O)OC | – | > 100 µM |
| CC1=CC(C)C/C=C/C2C3OC3(C)C(C)C3C(Cc4c[nH]c5ccccc45)NC(=O)C23C(=O)C=CC(=O)C1O (centres undefined) | – | 29 µM |
| COc1ccc(/C=C(/C(=O)N2CCN(c3ccccc3)CC2)c2cc(OC)c(OC)c(OC)c2)cc1O | 0.765 µM | > 100 µM |
| CCN(CC)CCC(=O)/C=C/c1ccccc1 | – | 54.3 µM |
| CN1CCN(CCOc2ccc(-c3cnc4c(-c5ccccc5F)cnn4c3)cc2)CC1 | 1.76 µM | 3.28 µM |
| N#Cc1c(NN)n(C2OC(CO)C(O)C2O)c2ncnc(N)c12 (centres undefined) | 0.371 µM | > 22.6 µM |
| Oc1cn(-c2ccc(Cl)cc2)nc1-c1nnc(-c2ccccc2)o1 | 0.165 µM | 3.58 µM |
| CNC(C#N)c1ccc(OC)cc1 (centres undefined) | – | > 100 µM |
| O=C(OC(CNc1cc(=O)n(Cc2ccccc2)c(=O)n1Cc1ccccc1)CN1CCCC1)c1ccccc1 (centres undefined) | > 100 µM | > 100 µM |
| C=C1C(=O)C[C@H]2C(=C)C(=O)O[C@@H]2C2C1CC[C@@]2(C)O (some centres undefined) | – | > 100 µM |
| O=C1c2cccc(NCCCNCCO)c2C(=O)c2cccc(NCCCNCCO)c21 | – | 3.39 µM |
| Cc1ccc(C)c(C2=C(c3cn(C)c4ccccc34)C(=O)NC2=O)c1 | > 19.6 µM | > 25 µM |
| COC(=O)c1cc2c(s1)C(=O)c1ccccc1-2 | – | > 100 µM |
| O=C(Cc1ccc(/C=C/C(=O)c2ncc[nH]2)cc1)Nc1cc(F)c(F)c(F)c1 | 4.35 µM | 10.2 µM |
| CCCn1c2ccccc2c2ccc3c(c21)C(=O)C=CC3=O | – | > 10 µM |
| O=C1NC(=O)C(c2cnc3ccccn23)=C1c1cn2c3c(cc(F)cc13)CN(C(=O)N1CCCCC1)CC2 | 16.6 µM | 36 µM |

| SMILES | GI50 | TGI |
| --- | --- | --- |
| COc1cc(N(CCC#N)CCC#N)ccc1/C(N=Nc1ccc([N+](=O)[O-])cc1)=N/NC(=O)c1cc(Br)ccc1O | 40.5 µg/mL | > 150 µg/mL |
| CCCC[C@@H]1CCN2C[C@@H](O)[C@@H](O)[C@@H]2[C@H]1O | – | > 100 µM |
| CC1(C)CC(=O)c2[nH]c3ccccc3c2CC(=O)NCCc2cn1cn2 | – | > 100 µM |
| CC(CCC=O)CCOCc1ccccc1 (centres undefined) | – | > 100 µM |
| CS(=O)(=O)Nc1ccc2c(c1)oc(=O)c1ccccc12 | – | > 100 µM |
| CN1CCN(C(=O)CCNC(=O)Cc2ccc(C(=O)c3ccccc3)cc2)CC1 | – | > 100 µM |
| COc1ccc2c(c1)CCCC(Br)C2=O (centres undefined) | – | 31.6 µM |
| COc1ccc(C2COc3cc(OC(C)=O)c(OC(C)=O)cc3C2)cc1 (centres undefined) | – | 48.5 µM |
| Nc1ccc(Oc2ccc(C34CC5CC6C3CC3CC4C(C5)C6(c4ccc(Oc5ccc(N)cc5)cc4)C3)cc2)cc1 | – | > 85.8 µM |
| Oc1c(C2=NNC(c3ccc(Cl)cc3Cl)C2)ccc2ccccc12 (centres undefined) | – | > 100 µM |
| CCC(C)n1ncn(-c2ccc(N3CCN(c4ccc(OCC5COC(Cn6cncn6)(c6ccc(Cl)cc6Cl)O5)cc4)CC3)cc2)c1=O (centres undefined) | > 100 µM | > 100 µM |
| Cc1nn(-c2ccccc2)c2nc(N3CCOCC3)nnc12 | – | > 100 µM |
| CC(C)(Br)C(Br)CCC1(C2CO2)CO1 (centres undefined) | – | > 5 µM |
| NC(=Nc1c([N+](=O)[O-])cnc2ccccc12)N1CCOCC1 | – | > 100 µM |
| [N-]=[N+]=NC12CC3C4CC5CC3C(C1)C(C5)C4C2 | – | > 100 µM |
| COc1cccc2c1OC(c1ccc(Cl)cc1)C([N+](=O)[O-])=C2 (centres undefined) | – | 14 µM |
| Cc1cc(CC(O)c2ccc(Cl)c(Cl)c2)nc(=O)[nH]1 (centres undefined) | – | > 100 µM |
| OC1[C@@H]2[C@@H](O)[C@H](O)[C@@H](O)N2C[C@@H]1O (some centres undefined) | – | > 100 µM |
| Cc1c([N+](=O)[O-])ccc2c(NCCCN(C)C)ccnc12 | – | > 100 µM |
| CC(O)CCC(=O)c1ccoc1 (centres undefined) | – | > 10000 µM |
| O=C(NCC(=O)N1CCCC1C(=O)OC(=O)C1CCCN1C(=O)CNC(=O)OCc1ccccc1)OCc1ccccc1 (centres undefined) | – | > 100 µM |
| O=C(O)c1ccc(Nc2c3ccccc3nc3ccccc23)cc1 | – | > 100 µM |
| c1nc(OCC2CCCCC2)c2[nH]cnc2n1 | – | > 100 µM |
| O=S1(=O)C[C@H](O)[C@H](O)CS1 | – | > 100 µM |
| CCCCCCCCCCCCCC1=NC(C)(C)CN1C(C)C | 1.67 µM | 3.07 µM |
| O=C(O)CCC(=O)c1ccc[nH]1 | – | > 100 µM |

| SMILES | GI50 | TGI |
| --- | --- | --- |
| CN(C)c1ccc(C(C=C2c3ccccc3Sc3ccccc32)=C(C#N)C#N)cc1 | – | > 100 µM |
| CCOc1ccccc1C=C1c2ccccc2C(=O)c2ccccc21 | – | > 100 µM |
| O/N=C/C1C(OCc2ccccc2)C(OCc2ccccc2)C(OCc2ccccc2)CN1Cc1ccccc1 (centres undefined) | 11.5 µM and 47.2 µM | 89.5 µM and > 100 µM |
| CC(C)c1ccccc1NC(=O)CCc1n[nH]c(=S)o1 | – | > 100 µM |
| NS(=O)(=O)c1ccc(N=Nc2nc3[nH]c(=O)[nH]c(=O)c3[nH]2)cc1 | – | > 100 µM |
| CC(C)(C)NC(NC(C)(C)C)=C(/C=C(/Cl)[N+](=O)[O-])[N+](=O)[O-] | – | > 100 µM |
| NC1CC(=O)c2c(Br)csc21 (centres undefined) | – | > 100 µM |
| COc1ccc2c3c([nH]c2c1[N+](=O)[O-])C(C)=NCC3 | – | > 100 µM |
| Cn1c2c(c3ccccc31)C1CCCCCCC1C1C(=O)OC(=O)C21 (centres undefined) | – | > 100 µM |
| Nc1ncnc2c1ccn2C/C=C\CO | – | > 100 µM |
| CCOC(=O)C1=C(C)N(Cc2ccc(Cl)cc2Cl)C2(O)C=CC(=O)C3C(=O)N(c4ccccc4)C(=O)C132 (centres undefined) | – | 15.3 µM |
| C=C1C(=O)OC2CCN3CC=C(COC(=O)C(C)(O)C4(CO4)C1C)C23 (centres undefined) | – | > 100 µM |
| CC(=O)O[C@H]1C[C@H]2[C@@H](OC(C)=O)/C=C3\C[C@](C)(C(=O)[C@H](O)C(=C1C)C2(C)C)[C@@H](O)C[C@@H]3OC(=O)[C@H](O)[C@H](c1ccccc1)N(C)C | – | > 100 µM |
| O=C(Nc1nc2ccc(C(F)(F)F)cc2s1)c1cc(Cl)ccc1O | 0.661 µM | > 100 µM |
| CCc1cc2c(oc3cc4ccccc4cc32)c(=O)[nH]1 | – | > 10 µM |
| C1C2CC3CC1CC(Nc1nc(NC45CC6CC(CC(C6)C4)C5)nc(NC45CC6CC(CC(C6)C4)C5)n1)(C2)C3 | – | > 69 µM |
| COC1(OC)CC2C(=O)N(Cc3ccccc3)C1C(S(=O)(=O)c1ccccc1)C2S(=O)(=O)c1ccccc1 (centres undefined) | – | > 100 µM |
| CC(=O)c1ccc(NCc2cc(O)ccc2O)cc1 | – | 54.9 µM |
| Cc1ccc(S(=O)(=O)N(CC(=O)O)c2ccccc2)cc1 | – | > 100 µM |
| O=C(O)CC(CC(=O)O)C(=O)O | – | > 100 µM |
| CCCCS(=O)CCC(N)P(=O)(O)O (centres undefined) | – | > 100 µM |
| CN=c1nc2sc3c(c2c(NC(=S)NC)s1)CCCC3 | – | > 100 µM |
| COc1cc2cc3c4c(cc(OC)c(OC)c4c2cc1OC)CCN3C(=O)OCCN1CCNCC1 | – | 32.1 µM |
| CC(C)(C)[Si](OC1CC(n2cnc3c(N)ncnc32)OC1CO)(c1ccccc1)c1ccccc1 (centres undefined) | – | 43.9 µM |
| CCN(CC)CC1CCCCCCCCCCC1=O (centres undefined) | – | > 100 µM |
| CC(C)(C)CC(C)(C)c1cc2c(O)c(c1)Cc1cc(C(C)(C)CC(C)(C)C)cc(c1O)Cc1cc(C(C)(C)CC(C)(C)C)cc(c1O)Cc1cc(C(C)(C)CC(C)(C)C)cc(c1O)C2 | – | > 100 µM |

| SMILES | GI50 | TGI |
| --- | --- | --- |
| CS(=O)(=O)O[C@H]1CN2C[C@@H](O)[C@@H](O)[C@H]2[C@H]1CO | – | > 100 µM |
| CC(=O)N(C)c1ccc(Nc2cc(C)[nH]c3ccc4ncnc4c23)cc1 | – | 29.2 µM |
| N#CC(=C1C=CC(=NO)C=C1)c1ccccc1 | 4.26 µM | 21 µM |
| COc1cnc2c(c1)C(=O)c1c-2n(CCCNC(C)C)c(=O)c2cc(Cl)ccc12 | 1.06 µM | 2.6 µM |
| N#Cc1nc(Nc2cccc3ccccc23)sc1N | – | > 100 µM |
| O=C(O)C1C2C=CC(O2)C1C(=O)NCc1ccccn1 (centres undefined) | – | > 100 µM |
| Nc1ccc2c(c1)N(C(=O)c1cc3cc(NC(=O)c4cc5ccccc5o4)ccc3[nH]1)CC2CCl (centres undefined) | – | > 39.8 µM |
| COc1ccc(N2C(=O)C(=O)N(c3ccccc3[N+](=O)[O-])C2=S)cc1 | – | > 100 µM |
| COc1cc(OC)c(-c2ccc(OCc3ccccc3)c3c(OC)cc(C)cc23)c2c1C(C)=N[C@H](C)C2 | – | 4.81 µM |
| COc1cc(/C=C2\C[C@H]3[C@@H]4CCc5cc(O)ccc5[C@H]4CC[C@]3(C)C2=O)cc(OC)c1OC | – | 34.6 µM |
| C=COCCCOc1ccccc1 | – | > 100 µM |
| COc1ccc(-n2cc(-c3cc(OC)c(OC)c(OC)c3)c(C(=O)C(F)(F)F)c2C)cc1 | > 100 µM | > 100 µM |
| COc1ccc(N2C(=O)/C(=C(\C)c3cc4ccccc4oc3=O)N=C2c2cc([N+](=O)[O-])ccc2Cl)cc1 | – | > 100 µM |
| CNC(=O)N(C)N=NCCCl | – | > 100 µM |
| CN(Cc1cnc2nc(N)nc(N)c2n1)c1ccc(C(=O)NC(CCC(=O)NCCC(P(=O)(O)O)P(=O)(O)O)C(=O)O)cc1 (centres undefined) | – | > 100 µM |
| COc1cccc(/C=C/c2cc(OC)c(OC)c(OC)c2)c1 | – | > 100 µM |
| CCCC(=O)n1[nH]c(=O)n(-c2ccc(Cl)cc2)c1=O | – | > 100 µM |
| CCCCc1c(N(C)C)c(OC(C)=O)c(-c2cn(C)c3ccccc23)oc1=O | – | > 100 µM |
| Cn1cc(CO)c2c1C(=O)C=C(N1CC1)C2=O | 0.0161 µM | 0.0533 µM |
| CCOC(=O)C1(C#N)C(c2ccccc2)CC(O)(c2ccc(OC)cc2)C(C(=O)c2ccc(OC)cc2)C1c1ccccc1 (centres undefined) | – | > 100 µM |
| C[N+](CCCl)(CCCl)Cc1cccc2cccc([N+](=O)[O-])c12 | – | > 100 µM |
| N#CC(N)(C(=O)CCC(=O)Nc1cccc(Cl)c1)c1ccc(Cl)cc1 (centres undefined) | – | > 100 µM |
| CCOC(=O)c1c(NC(=O)c2cccs2)sc2c1CCCC2 | – | > 100 µM |
| COc1cc(C(Cc2ccccc2)NC(C)=O)oc(=O)c1 (centres undefined) | – | > 100 µM |
| COC(=O)c1cc2c3c(ccc2[nH]1)N(C(=O)c1cc2cc(OC)c(OC)c(OC)c2[nH]1)CC3CCl (centres undefined) | – | > 100 µM |
